About 16,000 (7.3%) of roughly 220,000 compounds were called active. Inconclusive results, whose numbers are uncertain, are shown with a selection of clear calls. The call rests on the fitted dose curve; in most records, active means well fitted inhibition curve with a large enough effect (not every such curve was filed as active); inconclusive means small, poorly fitted or top-dose-only effect, or another doubt; inactive means no such curve, though single readings can be large or run the other way. No potency is given beside an inconclusive call; the fits are too rough.
The compounds below were run against Aldehyde dehydrogenase 1A1 (Homo sapiens) (UniProt P00352) (assay: qHTS Assay for Inhibitors of Aldehyde Dehydrogenase 1 (ALDH1A1)). Details: Purified ALDH1A1, NADH fluorescence, propionaldehyde substrate; series mostly up to 75.3 µM; activity, negative = inhibition: at the top concentration.
Sequence of UniProt P00352 (P00352 whole entry, looked up): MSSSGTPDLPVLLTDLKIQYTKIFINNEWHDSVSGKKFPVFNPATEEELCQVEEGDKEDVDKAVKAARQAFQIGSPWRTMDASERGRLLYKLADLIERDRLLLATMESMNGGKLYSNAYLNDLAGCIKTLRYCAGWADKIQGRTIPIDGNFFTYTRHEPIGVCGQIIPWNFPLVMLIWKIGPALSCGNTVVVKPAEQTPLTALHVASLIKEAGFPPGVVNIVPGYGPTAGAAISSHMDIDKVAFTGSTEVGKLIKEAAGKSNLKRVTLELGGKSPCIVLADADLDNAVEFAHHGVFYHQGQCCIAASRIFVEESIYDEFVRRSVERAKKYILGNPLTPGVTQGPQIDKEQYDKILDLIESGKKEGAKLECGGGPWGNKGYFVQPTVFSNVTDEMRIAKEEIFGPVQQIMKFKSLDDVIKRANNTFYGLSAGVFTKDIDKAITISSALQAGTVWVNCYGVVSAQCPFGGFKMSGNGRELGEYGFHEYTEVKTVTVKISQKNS
In the case of CC(Sc1ncc(C#N)c(N)n1)C(=O)Nc1ccccc1 (stereo not given), the “activity, negative = inhibition” value is reported as inactive: -2.52%. In the case of Cc1ncsc1CCOC(=O)C12CC3CC(CC(C3)C1)C2, the Potency is reported as inconclusive [inhibitor, single point]. For CCN1CCN(c2cc(C)c3cc(NC(=S)N4CCOCC4)ccc3n2)CC1, the Potency was inconclusive [inhibitor, single point]. For O=C(Nc1nc2ccc([N+](=O)[O-])cc2s1)C1CCCO1 (stereo not given), the Potency was inconclusive [inhibitor, partial curve]. CCC(C)NC(=S)N1CCN(C(c2ccccc2)c2ccccc2)CC1 (stereo not given) was tested, and the Potency was inconclusive [inhibitor, single point]. With CCOCC(=O)N1CCc2ccccc21 the Potency was active: 3.55 µM. For CN1CCN(c2ncnc3ccc(-c4ccc5c(c4)OCO5)cc23)CC1, the Potency was inconclusive [inhibitor, single point]. COc1ccc(CN(Cc2cc3cc(OC)c(OC)cc3[nH]c2=O)C(=O)NC2CCCCC2)cc1 was tested, and the Potency was inconclusive [inhibitor, partial curve]. In the case of O=C(C1=C[C@H](c2coc3ccccc3c2=O)C[C@H](OCCCCO)O1)N1CCN(Cc2ccccc2)CC1, the Potency is reported as inconclusive [inhibitor, single point]. For CN(C)C(=O)c1c2c(nc3ccccc13)CCCC2, the Potency was inconclusive [inhibitor, full curve]. For CCCCCCCCCCCCN1C(=O)CSC1c1cccnc1 (stereo not given), the “activity, negative = inhibition” value was inactive: -14.6%. In the case of O=C(CCCn1c(=O)[nH]c2cc(Cl)ccc2c1=O)NCCCN1CCCC1, the “activity, negative = inhibition” value is reported as inactive: 12.1%. With Cc1cccc(C2CC(c3ccc(Cl)cc3)Nc3nc(N)nn32)c1 (stereo not given) the “activity, negative = inhibition” value was inactive: 8.05%. CCSc1nc(-c2ccc(OC)cc2)cc(-c2ccccc2)c1C#N was tested, and the Potency was inconclusive [inhibitor, single point]. In the case of Cc1ccc(C2CC(c3cccc(NS(C)(=O)=O)c3)=NN2S(C)(=O)=O)cc1 (stereo not given), the Potency is reported as inconclusive [inhibitor, partial curve]. In the case of Fc1ccc(NCc2nnc(SCc3ccccc3)o2)cc1, the Potency is reported as inconclusive [inhibitor, single point]. C#CCn1c(=NC(=O)c2ccc(S(=O)(=O)N3CCc4ccccc4C3)cc2)sc2cc(S(N)(=O)=O)ccc21 was tested, and the Potency was inconclusive [inhibitor, partial curve]. For COc1ccc(N2CCN(C(=O)c3ccc(N(C)S(=O)(=O)c4ccc(OC)cc4)cc3)CC2)cc1, the “activity, negative = inhibition” value was inactive: -10.5%. With COc1cccc(N2CCN(c3ccc(S(=O)(=O)N4CCCC4)cc3)CC2)c1 the “activity, negative = inhibition” value was inactive: -3.31%. With O=C(NCCc1ccc2c(c1)OCCO2)c1ccccc1F the Potency was inconclusive [inhibitor, single point]. C=CCSc1nc2sc3c(c2c(=O)n1CC=C)CCc1ccccc1-3 was tested, and the “activity, negative = inhibition” value was inactive: -4.96%. In the case of O=C(c1csnn1)N1CCC2(CCCN(c3cccc(-c4ccccc4)c3)C2)CC1, the “activity, negative = inhibition” value is reported as inactive: -8.23%. For CC(=O)NNc1nc(-c2ccccc2)c2cc(Br)ccc2n1, the “activity, negative = inhibition” value was inactive: 0.217%. With Cc1ccc(CN2C(=O)c3ccccc3NC2c2ccccn2)cc1 (stereo not given) the Potency was inconclusive [inhibitor, partial curve]. With CCOC(=O)c1c(-c2ccc(F)cc2)csc1NC(=O)c1c(-c2ccccc2)noc1C the Potency was inconclusive [inhibitor, partial curve]. For COC(=O)C1=C(C)NC(C)=C(C(=O)OC)C1c1ccc(OC(=O)c2ccco2)cc1, the Potency was inconclusive [inhibitor, single point]. C=CCN1C(=O)C(CC(=O)O)SC1=Nc1ccc(C(=O)O)cc1 (stereo not given) was tested, and the “activity, negative = inhibition” value was inactive: 5.84%. In the case of Cc1ccc(S(=O)(=O)NC(C(=O)N2CCOCCOCCOCC2)c2ccccc2)cc1 (stereo not given), the Potency is reported as inconclusive [inhibitor, single point]. CCOC(=O)C1CCCN(C(=O)c2ccc([N+](=O)[O-])cc2)C1 (stereo not given) was tested, and the Potency was inconclusive [inhibitor, partial curve, poor fit]. In the case of O=C(NCc1ccco1)c1cc2c(s1)CCCCC2, the Potency is reported as active: 28.2 µM. For CCOc1cc2[nH]c(=O)n(CCCCC(=O)N3CCCCCC3)c(=O)c2cc1OCC, the Potency was inconclusive [inhibitor, single point]. In the case of CC1CCCN(c2ccc(/C=C(\C#N)c3nn(-c4ccccc4)c(N)c3C#N)cc2[N+](=O)[O-])C1 (stereo not given), the Potency is reported as inconclusive [inhibitor, partial curve, poor fit]. For Cn1c(=O)c(-c2cccs2)nc2cnc(OCc3ccccc3)nc21, the Potency was inconclusive [inhibitor, partial curve]. Cc1ccc(S(=O)(=O)N2CCN(C(=O)CSc3ncc(C(F)(F)F)cc3Cl)CC2)cc1 was tested, and the Potency was active: 2.82 µM. In the case of CN(CC(=O)Nc1sc2c(c1C#N)CCCCC2)Cc1nc2ccccc2c(=O)[nH]1, the Potency is reported as inconclusive [inhibitor, single point]. In the case of CCC(c1nnnn1C(C)(C)C)N(Cc1ccco1)Cc1cc2cccc(C)c2[nH]c1=O (stereo not given), the Potency is reported as inconclusive [inhibitor, single point]. For Cc1ccc(C2=N/C(=C\N3CCCCC3)C(=O)O2)cc1, the Potency was inconclusive [inhibitor, single point]. In the case of O=C(CCN1CCOCC1)c1ccc(Br)cc1, the Potency is reported as active: 0.1 µM. COc1ccccc1NC(=S)N(Cc1ccccn1)Cc1ccccc1Cl was tested, and the Potency was inconclusive [inhibitor, partial curve]. With CCOC(=O)CSc1nc2c(sc(=S)n2-c2ccccc2)c(=O)[nH]1 the “activity, negative = inhibition” value was inactive: 9.46%. For CCC(=O)Oc1ccc2c(=O)c(-c3ccc4ccccc4n3)c(CC)oc2c1C, the Potency was inconclusive [inhibitor, single point]. With Cc1cc(=O)n2c3c(cccc13)CCC2 the Potency was inconclusive [inhibitor, single point]. O=C(N/N=C/c1c(O)n(-c2ccc(Cl)cn2)c(=O)c2ccccc12)c1ccncc1 was tested, and the Potency was inconclusive [inhibitor, partial curve]. COc1ccc(NC(=O)CSc2[nH]c(=O)cc(C)c2C#N)cc1OC was tested, and the Potency was inconclusive [inhibitor, single point]. For CCCn1nnnc1SCC(=O)NCc1ccc2c(c1)OCO2, the Potency was inconclusive [inhibitor, partial curve]. In the case of CCC1c2ccc(C)n2CCN1C(=O)Nc1ccc(F)cc1 (stereo not given), the Potency is reported as inconclusive [inhibitor, single point]. For Cc1ccc(NC(=O)CN2C(=O)S/C(=C/c3ccc(O)c([N+](=O)[O-])c3)C2=O)cc1C, the Potency was inconclusive [inhibitor, single point]. For CC(=O)c1cccc(NC(=O)Cc2cccs2)c1, the Potency was inconclusive [inhibitor, single point]. For CC(=O)Cc1nsc(Nc2ccc3c(c2)OCCO3)n1, the Potency was active: 3.16 µM. In the case of O=C(COc1ccc(Cl)cc1Cl)NNC(=S)Nc1ccc(F)cc1, the Potency is reported as inconclusive [inhibitor, single point]. For Cc1ccc(C)n1-c1sc2c(c1C#N)CCC(C)C2 (stereo not given), the Potency was active: 25.1 µM. In the case of COc1ccc(/C=C2\CCC(C3CCCC3)C2=O)cc1Cn1nc(C)cc1C (stereo not given), the Potency is reported as inconclusive [inhibitor, partial curve]. With CCOC(=O)c1cc2c(n(-c3ccc(C)cc3)c1=O)CCCC2=O the Potency was inconclusive [inhibitor, single point]. CCOC(=O)c1sc(=S)n(-c2ccc(C)cc2)c1SC was tested, and the Potency was active: 22.4 µM. With Cc1ccc(SCc2nc3ccccc3[nH]2)cc1 the Potency was inconclusive [inhibitor, single point]. With O=Cc1ccc(OCC(=O)N2CCOCC2)cc1 the Potency was inconclusive [inhibitor, full curve]. With Cc1ccc(C(=O)O)cc1-c1ccc(/C=C2/NC(=O)N(c3ccccc3)C2=O)o1 the Potency was inconclusive [inhibitor, partial curve]. With COc1ccc(-c2cc3nc(C)cc(C)n3n2)cc1 the Potency was inconclusive [inhibitor, single point]. With O=S(=O)(Nc1cccc(S(=O)(=O)N2CCOCC2)c1)c1ccc2c(c1)OCCO2 the Potency was active: 25.1 µM. In the case of COC(=O)c1[nH]nc(C(=O)OC(C)(C)C)c1-c1ccccc1, the Potency is reported as inconclusive [inhibitor, single point]. In the case of CCOC(=O)N1CCN(C(=O)Cn2ncn3nc(-c4cccs4)cc3c2=O)CC1, the Potency is reported as inconclusive [inhibitor, single point]. O=C(COc1ccccc1)N(Cc1ccco1)C1CCS(=O)(=O)C1 (stereo not given) was tested, and the Potency was active: 22.4 µM. With CN(C)c1ccc(/C=N/NC(=O)CCc2c[nH]c3ccccc23)cc1 the Potency was inconclusive [inhibitor, partial curve]. For N#C/C(=C\c1ccc(-c2cccc([N+](=O)[O-])c2)o1)C(=O)N1CCOCC1, the “activity, negative = inhibition” value was inactive: -14.2%. CCCN1C(=O)S/C(=C\c2ccc(N3CCOCC3)cc2C)C1=O was tested, and the Potency was active: 1.58 µM. For O=S(=O)(NCCSc1ccccc1)c1ccc2c(c1)OCCO2, the Potency was active: 0.562 µM. For CC1(C)Cc2nc3sc4c(N(CCO)CCO)nnnc4c3cc2CO1, the Potency was inconclusive [inhibitor, partial curve]. For O=C1N(Cc2cccc(Cl)c2)C[C@@H]2C[C@@H](c3c[nH]c4ccccc34)N3CCC[C@@]123, the Potency was inconclusive [inhibitor, single point]. In the case of Cc1ccc2cc(C=C(C#N)C#N)c(N3CCCCC3)nc2c1, the Potency is reported as active: 7.94 µM. In the case of COc1ccc(OC)c(C2/C(=C(/O)c3ccc(C)cc3)C(=O)C(=O)N2Cc2ccco2)c1 (stereo not given), the Potency is reported as inconclusive [inhibitor, single point].
Potency means the concentration at half of the fitted maximal effect; tags describe the fitted curve by direction and shape.
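Wherever activity, negative = inhibition is given: plate controls were no enzyme wells and a reference inhibitor.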
